PubChem BioAssay AID686970 (National Center for Advancing Translational Sciences (NCATS), 2013)
The whole screen tested about 360,000 compounds, of which about 6,000 (1.7%) were called active. The inconclusive results got no clear call from the source; some entries with a clear call stand among them for comparison. The call rests on the fitted dose curve; in most records, active means well fitted cell-killing curve with a large enough effect; inconclusive means small, poorly fitted or top-dose-only effect, or effect the other way; inactive means flat fitted curve, though single readings scatter. Potencies of inconclusive entries are left out as doubtful fits.

Test: qHTS for induction of synthetic lethality in tumor cells producing 2HG: qHTS for the HT-1080-NT fibrosarcoma cell line;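 further: NT is the 2HG producing partner of a matched IDH1 knockdown line; nearly all actives have a fitted effect of over 55% in size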;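 on activity, negative = less viability: 0% = DMSO-treated cells and -100% = media-only wells without cells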
Details: HT-1080-NT fibrosarcoma viability, CellTiter-Glo ATP luminescence, 48 h; activity, negative = less viability: at 46.1 µM (top of the series) unless noted
How it was run: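 Read-out is CellTiter-Glo luminescence after 10 minutes at room temperature, following 48 hours' compound treatment of HT-1080-NT cells (750 cells/well, RPMI, 5% FBS, 37 degrees C).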
Potency means the concentration at half of the fitted maximal effect; tags describe the fitted curve by direction and shape.

SMILES	activity, negative = less viability	Potency
CCC1(CC)N=C(c2ccccc2)C(=S)N1	inactive: 29%	
CCOC(=O)C1=C(C)C/C(=N\NC(=O)c2ccccc2O)CC1		inconclusive [cytotoxic, single point]
CC(C)(C)OC(=O)C[C@@H]1C/C=C\C[C@@H](CC(=O)N(CCO)Cc2ccccc2)C(=O)NC[C@H](c2ccccc2)OC1=O		inconclusive [cytotoxic, single point]
COc1ccc(NC(=O)CSc2nnc3n2CCCCC3)cc1S(=O)(=O)N(C)C	inactive: -0.349%	
COc1cc(/C=N/NC(=O)c2sc3nc(C)cc(C)c3c2N)ccc1O		inconclusive [cytotoxic, single point]
CCN1CCN(S(=O)(=O)c2ccc(Cl)c(C(=O)N(C)Cc3ccc(C(C)(C)C)cc3)c2)CC1		inconclusive [cytotoxic, single point]
O=C(Nc1ccc(C(=O)N2CCC(O)(c3ccc(Cl)c(C(F)(F)F)c3)CC2)cc1)c1ccc(Br)o1	inactive: -16.6%	
Nc1nc2ccccc2n1Cc1ccc(Cl)c(Cl)c1		inconclusive [cytotoxic, single point]
Clc1ccc2[nH]cc(-c3nnnn3-c3ccccc3)c2c1		inconclusive [cytotoxic, single point]
CCC(C)Sc1cc(C(F)(F)F)c(C(=O)Nc2ccc(Cl)cc2)cn1 (configuration not stated)		inconclusive [cytotoxic, single point]
Nc1c(-c2cccc(Cl)c2)cnn1-c1cccc(C(F)(F)F)c1		inconclusive [cytotoxic, single point]
CCN(CC)C1CC(=O)N(c2cccc(Cl)c2)C1=O (configuration not stated)	inactive: 17.6%	
Cn1nc(C(C)(C)C)c([N+](=O)[O-])c1C(=O)Nc1ccc(Br)cc1		inconclusive [cytotoxic, single point]
COc1ccc(-n2c(NN)nc3sc4c(c3c2=O)CCCC4)cc1		inconclusive [cytotoxic, single point]
N#Cc1ccc(-c2cccnc2)nc1SCC(=O)c1ccccc1		inconclusive [cytotoxic, single point]
COc1ccc(-c2csc3nc(-c4ccccc4F)oc(=O)c23)cc1OC		inconclusive [cytotoxic, single point]
C=Cc1ccc(Cn2c(C)c(C(=O)NCCC#N)sc2=O)cc1	inactive: 4.64%	
COc1ccc(N2C(N)=NC(N)=NC2(C)C)cc1		active: 9.2 µM
CC(C)(C)c1ccc(CC(=O)N2CCC2(C)C(=O)Nc2cccc3c2CCCC3)cc1 (configuration not stated)		inconclusive [cytotoxic, single point]
COc1ccc(C/C(O)=C(\C#N)c2nc3ccccc3s2)cc1		inconclusive [cytotoxic, single point]
Clc1ccc2[nH]c3c(c2c1)CNCC3		inconclusive [cytotoxic, single point]
Cc1cc(C)c(NC(=S)N(Cc2cccnc2)Cc2ccco2)c(C)c1	inactive: 5.24%	
COc1ccc(S(=O)(=O)N2CCC(C(=O)NCCN3CCOCC3)CC2)cc1	inactive: -11.7%	
COC(=O)c1ccc2nc(C3CCCCC3)c(Cc3ccccc3)n2c1		inconclusive [cytotoxic, single point]

SMILES	activity, negative = less viability	Potency
CC(=O)c1c(C)[nH]c(C(=O)CSc2nc3ccc(C)cc3[nH]2)c1C	inactive: 0.497%	
CN(C)Cc1c(O)ccc2oc(Cc3ccccc3)cc12		inconclusive [cytotoxic, partial curve]
CC(=O)c1ccc(S(=O)(=O)N(Cc2cc3cc4c(cc3[nH]c2=O)OCCO4)CC2CCCO2)cc1 (configuration not stated)	inactive: -0.0141%	
CC(C)Cn1c(CN2C(=O)c3ccccc3C2=O)nc2ccccc2c1=O	inactive: 2.1%	
Clc1ccccc1N=C1NN=C(c2cccs2)CS1		inconclusive [cytotoxic, single point]
C=C(C)c1cccc(C(C)(C)NC(=O)Nc2cc(C)ccn2)c1	inactive: -5.43%	
CC(C)(C)c1ccc(C(=O)CC(=O)c2cc(Cl)ccc2O)cc1		inconclusive [cytotoxic, single point]
COc1ccc(-c2oc3ccc(-c4ccc5c(c4)OCO5)cc3c2C#CC2(O)CCCCC2)cc1		inconclusive [cytotoxic, single point]
Cc1noc(/C=C/c2ccccc2F)c1S(=O)(=O)N1CCC(C(=O)N2CCN(C)CC2)CC1		inconclusive [cytotoxic, single point]
Cc1cccn2c(Nc3ccccc3)c(-c3ccccn3)nc12		inconclusive [cytotoxic, single point]
C/C(N)=C(/C#N)C(=O)CSc1nc2ccccc2c(=O)n1CCCOC(C)C	inactive: 0.928%	
CCOC(=O)c1c(S(=O)(=O)NCc2ccco2)c(C)n(C)c1C	inactive: 2.68%	
Cc1cccc(-c2cc3nc4c(c(N5CCOCC5)n3n2)CCCC4)c1		inconclusive [cytotoxic, single point]
CCSC1(SCC)N=C(N)C2(C#N)C(c3ccc(F)cc3)C12C#N (configuration not stated)	inconclusive: -31.9% [cytotoxic]	
O=C(O)c1ccccc1-c1ccccc1C(=O)Nc1ccc2c(c1)C(=O)c1ccccc1-2	inactive: -28.1%	
COc1cc2c3nnc(-c4ccccc4)c-3cn(Cc3ccc(F)cc3)c2cc1OC		active: 18.4 µM
CCOC(=O)C1=CCN(S(=O)(=O)c2ccccc2Cl)C1c1cccc(Br)c1 (configuration not stated)		inconclusive [cytotoxic, single point]
O=C(c1cc2nc(-c3ccc(F)cc3)cc(C(F)(F)F)n2n1)N1CCCCC1c1cccnc1 (configuration not stated)		inconclusive [cytotoxic, full curve]
COc1ccc(OC)c(NC(=O)COC(=O)CCNc2ccccc2OC)c1	inactive: 10.4%	
CN(C)S(=O)(=O)c1cccc(CSCc2cccc(S(=O)(=O)N(C)C)c2)c1		inconclusive [cytotoxic, partial curve, poor fit]
CCOc1cc(CNc2ccc3c(c2)OCCO3)cc(Br)c1OC		active: 2.31 µM
CC1(C)CC(=O)N(Cc2ccccc2)C(=O)C1	inactive: 14.2%	
Cc1ccc(-c2noc(CCC(=O)NCC3CCN(Cc4cccc(C)c4)CC3)n2)cc1		inconclusive [cytotoxic, single point]
CCc1ccc(NC(=O)C(C)OC(=O)Cn2[nH]c(=O)c3ccccc3c2=O)cc1 (configuration not stated)	inactive: -0.867%	

SMILES	activity, negative = less viability	Potency
O=C(COC(=O)c1c2c(nc3ccccc13)CCCC2)c1ccc(Br)s1		inconclusive [cytotoxic, partial curve]
CN(C)c1ccc(-c2csc(C(C)(O)c3cccc(F)c3)n2)cc1 (configuration not stated)		active: 25.9 µM
O=C1NC(Cc2ccc(O)cc2)c2nc3ccc(Br)cc3c(=O)n2-c2cc3ccccc3cc21 (configuration not stated)		active: 16.4 µM
Cc1ccc2nc(SCC(=O)N3CCC(Cc4ccccc4)CC3)nc(=O)n2c1		inconclusive [cytotoxic, single point]
C=CCN(CC=C)Cc1c(O)ccc2c(=O)c(-c3ccccc3)coc12		inconclusive [cytotoxic, single point]
CC(C)(C)NC(=O)NC(=O)COC(=O)c1cccc(OC(F)F)c1	inactive: 0.184%	
O=c1cc(-c2ccccc2)nc2c(-c3ccccc3)c(C(F)(F)F)[nH]n12		inconclusive [cytotoxic, partial curve]
COc1ccc(S(=O)(=O)N(C)C[C@H]2Oc3ccc(NC(=O)Nc4ccc(C(F)(F)F)cc4)cc3C(=O)N([C@H](C)CO)C[C@@H]2C)cc1		inconclusive [cytotoxic, partial curve]
Cc1ccn2c(NC3CCCC3)c(-c3ccccn3)nc2c1		inconclusive [cytotoxic, single point]
O=C(C1=C[C@@H](c2coc3ccccc3c2=O)C[C@@H](OCc2ccc(CO)cc2)O1)N1CCOCC1	inactive: 0%	
Cc1ccc(N=Cc2c(C)[nH]n(-c3ccccc3)c2=O)nc1	inactive: -9.15%	
COc1ccc(NC2CCCN(C(=O)c3cc(CC(C)C)nc(N)n3)C2)cc1 (configuration not stated)	inactive: 14.6%	
c1cc2nc(C34CC5CC(CC(C5)C3)C4)[nH]c2cn1	inactive: 6.55%	
OCC1(CCOc2ccccc2)CCN(Cc2ccc(OC(F)F)cc2)CC1		inconclusive [cytotoxic, single point]
COc1cccc(CNc2nc3cc(-c4ccccc4C)sc3c(=O)n2C)c1		inconclusive [cytotoxic, single point]
O=C(/C=C/c1ccco1)Oc1cc(Br)cc(/C=N/NC(=O)c2ccccc2O)c1		inconclusive [cytotoxic, full curve]
O=C(CC1C(=O)NCCN1Cc1ccccc1)NC1CCCCC1 (configuration not stated)	inactive: 1.04%	
CC(C)(C)OC(=O)CC(S(=O)(=O)c1ccccc1)S(=O)(=O)c1ccccc1		inconclusive [cytotoxic, single point]
COc1ccccc1C(=O)NNC(=O)c1ccc2ccccc2c1O		inconclusive [cytotoxic, partial curve]
Oc1cccc(Nc2nc(-c3ccccc3Cl)nc3ccccc23)c1		inconclusive [cytotoxic, partial curve]
Cc1ccnc2nc(C(=O)OCCOc3ccc(Cl)cc3)nn12	inactive: 17.1%	
Cc1ccc(CN2CC(C(=O)N3CCN(c4ccccc4Cl)CC3)CC2=O)cc1 (configuration not stated)	inactive: 5.24%	
CC(=O)Nc1ccc(-c2ccnc3c2CC(C)(C(=O)Nc2ccc(Cl)cc2)O3)cc1 (configuration not stated)		inconclusive [cytotoxic, single point]
Cc1ccc(-c2nc3cc(C)c(Br)c(C)n3c2Cc2cccc(F)c2)cc1		inconclusive [cytotoxic, single point]
